# The source gives no read counts; variants with many changes may rest on few reads.
# B1: CPEB3 Ribozyme (parent)
# chain: UAACAGGGGGCCACAGCAGAAGCGUUCACGUCGCAGCCCCUGUCAGAUUCUGGUGAAUCUGCGAAUUCUGCUGUAUAUCUC
# Variants of: B1
# Test: self-cleavage, relative activity (ratio to wild type); higher = more cleavage; in vitro, sequencing
# Summary of the method: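 Relative activity compares each variant's cleaved/total read fraction with that of the unmutated ribozyme. To get these fractions, barcoded CPEB3 ribozyme libraries from rounds of error-prone PCR were transcribed with T7 RNA polymerase for 5 hours at 37°C and then given 15 min of DNase I treatment before EDTA was added. The RNAs were reverse transcribed with template switching and sequenced on Illumina, and DNA sequencing linked barcodes to variants. A minimum of 5 reads applied, and three batches were averaged.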
row,Variant,self-cleavage
1,UAACAGGGGGUCACAGCAGAAGCGUUCACGUCGCAGCCCCUGUCAGAUUCUGGUGAAUCUGCGAAUGCUGCUGUAUGUCUC [C11U U67G A77G],0.35
2,UAACAGGGGGUCACAACAGGAGCGUUCACGUCGCAGCCCUUGUCAGAUUCUGGUGAAUCUGCGAAUUCUGCUGUGUAUCUC [C11U G16A A20G C40U A75G],0.05
3,UAACAGGGGGUCACAGCAGAAGCGUUCACGUCGCAGCCCUUGUCAGAUUCUGGAGAAUCCGCGAAUUCUGCUGUAUAUCUC [C11U C40U U54A U60C],0.17
4,UAACAGGGGGUCACAGCAGAAGCGUUAACGUCGCAGCCCCUGUCAGAUUCUGGUGAAUCUGCGAAUUCUGCUGUAUAUCCC [C11U C27A U80C],0.1
5,UAACAGGGGGUCACAGCAGAAGCGUUCACGUCGCAGCCCCUGUCAGAUUCUGGUGAAUCCGCGAAUUCUGCUGUAUCUCUC [C11U U60C A77C],0.1
6,UAACAGGGGGUCACAGCAGAAGCGUUCACGUCGCAGCCCCUGUCCGAUUCUGGUGAAUCUGCGAAUUCUGCUGUACAUCUC [C11U A45C U76C],0.05
7,UAACAGGGGGUCACAGCAGAAGCGUUCACGUCGCAGCCCCUGUCAGGUUCUGGUGAAUCUGCGGAUUCUGCCGUAUAUCUC [C11U A47G A64G U72C],0.16
8,UAACAGGGGGCAGCGGCAGAAGCGUUCACGUCGCAGCCCCUGUCAGAUUCUGGUGAAUCUGCGAAUUCUGCAGUAUAUCUC [C12A A13G A15G U72A],0.12
9,UAACAGGGGGUCACAGCAGAAGCGUUCACGUCGCAGCCCCUGUCGGAUUCUGGAGAAUCUGCGAAUUCUGCUGUCUAUCUC [C11U A45G U54A A75C],0.39
10,UAACAGGGGGCAACAGCAGAAGCGUUCUCGCCGCACCCCCUGCCAGAUUCUGGUGAAUCUACGAAUUCUGCUGUAUAUCUC [C12A A28U U31C G36C U43C G61A],0.05
11,UAACAGGGGGUCACAGCAGAAGCGUUCACGUCGCAGCCCCUGUCGGGCUCUGGUGAAUCUGCGAAUUCUGCUGUAUAUCUC [C11U A45G A47G U48C],0.1
12,UAACAGGGGGCAACAGCAGAAGCGUUCACGUCGCUGCCCCUGUCAGAUUCUGGUGACUCUGCGAAUUCUGCUGUUUAUCUC [C12A A35U A57C A75U],0.84
13,UAACAGGGGGCAACAGCUGAAGCGUUCACGCCGCAGCCCCUGUCAGAUUCUGGUUAAUCUGCGAAUUCUGCUGUAUAUCUC [C12A A18U U31C G55U],0.14
14,UAACAGGGGGCAACAGCGGAAGCGUUCACGCCGCUGCCCCUGUCAGAUUCUGGUGAAUCUGCGAAUUCUGCUGUAUAUCUC [C12A A18G U31C A35U],0.09
15,UAACAGGGGGCAUCAGCUGAAGCGUUCACGUCGCAGCCCCUGUCAGAUUCUGGCGAAUCUGCGAAUUCUGCUGUAUAUCUC [C12A A13U A18U U54C],0.47
16,UAACAGGGGGUCACAGCAGAAGCGUUCACGUCGCAGCCCCUGUCAGAUUCUGGAGAAUCUGCGAAUUCAGCUGUAUAUCUC [C11U U54A U69A],0.14
17,UAACAGGGGGUCACAGCAGAAGCGUUCACGUCGCAGCCCCUGUCAGAUUCUGGUGAAUCAGCGAAUUCUGCUGUAUACCUC [C11U U60A U78C],0.07

row,Variant,self-cleavage
1,UAACAGGGGGUCACAGCAGAAGCGUUCACGUCGCAGCCCCAGUCUGAUUCUGGUGAAUCUGCGAAUUCUGCCGUAUAUCUC [C11U U41A A45U U72C],0.07
2,UAACAGGGGGUCACAGCAGAAGCGUUCACGUCGCAGCCCAUGUCAUAUCCUGGUGAAUCUGCGAAUUCUGCUGUAUAUCUC [C11U C40A G46U U49C],0.07
3,UAACAGGGGGUCACAGCAGAAGCGUUCACGUCGCAGCCCCUGUCACAUUCUGGUGAAUCUGCGAAUCCUGCUGUAUAUCUC [C11U G46C U67C],0.06
4,UAACAGGGGGCAACAGCGGAAGCGUUCACGUCGCAGCCCCUGUCAGAUCCUGGCGAAUCUGCGAACUCUGCUGUAUAUCAC [C12A A18G U49C U54C U66C U80A],0.14
5,UAACAGGGGGCAGCAGCAGAAGCGUUCACGCCGCAGCCCCUGUCAGAUUCUGGUGGAUCUGCGAAUCCUGCUGUAUAUCUC [C12A A13G U31C A56G U67C],0.1
6,UAACAGGGGGUCACAGCAGAAGCGUUCACGUCGCAGCCCCCGCCAGAUUCUGGUGAAACUGCGAAUUCUGCUGUAUAUCUC [C11U U41C U43C U58A],0.11
7,UAACAGGGGGUCACAGCAGAAGCGCCCACGUCGCAGCCCCUGUCAGAUUCGGGUGAAUCUGCGAAUUCUGCUGUAUACCUC [C11U U25C U26C U51G U78C],0.04
8,UAACAGGGGGCAACAGCUGAAGCGUUCACGUCGCAGCCCCUGUCAGAUUCUGGUGAAUCUGCGAAUUAUGCUGUAUAUCCC [C12A A18U C68A U80C],0.2
9,UAACAGGGGGUCACAGCAGAAGCGUUCACGUCGCUGCCCCAGUCAGAUUCUGGUGAAUCUGCGAAUUCUGCUGUAUACCUC [C11U A35U U41A U78C],0.04
10,UAACAGGGGGUCACAGCAGAAGCGUUCACGUCGCAGCCCCUGUCAGAUUCUGGUGAGUCUGCGAAUUCCGCUGUAUAUCUC [C11U A57G U69C],0.07
11,UAACAGGGGGUCACAGCAGAAGCGUUCACGUCGCAGCCCCUGUCAGAUUCAGGUGAAUCUGCGGAUUCGGCUGUAUAUCUC [C11U U51A A64G U69G],0.13
12,UAACAGGGGGUCACAGCAGAAGCGCUCACGUCGCAGCCCCUGUCAGAUUCUGGUGAGUCUGCGAAUUCUGCUGUAUAUCUC [C11U U25C A57G],0.19
13,UAACAGGGGGUCACAGCAGAAGCGUUCACGUCGCAGCCCCUGUCCGAUUCUGGUGAACCUGCGAAUUCUGCUGUAUAUCUC [C11U A45C U58C],0.06
14,UAACAGGGGGUAACAGCAGAAGCGUCCACUUCGCAGCCCCUGUCAGAUUCUGGUGAAUCUGCGAAUUCCGCUGUAUAUCUC [C11U C12A U26C G30U U69C],0.16
15,UAACAGGGGGUCACAGCAGAAGCGCUCACGUCGCAGCCCCUGUCUGAGUCUGGUGAAUCUGCGAAUUCUGCUGUAUAUCUC [C11U U25C A45U U48G],0.06
16,UAACAGGGGGCAACUGCAGAAGCGUUCACGUCGCAGCCCCUGUCAGAUUCUGGUGAAUCUGCGAACUCUGCUGUACAUCUC [C12A A15U U66C U76C],0.3
17,UAACAGGGGGUCACAGCAGAAGCGUACACGUCGCAGCCCCUGUCAGAUCCUGGUGAGUCUGCGAAUUCUGCUGUAUAUCUC [C11U U26A U49C A57G],0.1
